# Measurements as given in paper PMC4336329 (PLoS ONE, 2015).
# Hit rate of the full screen: of about 310,000 compounds, about 14,000 (4.5%) showed an effect of 50% or more. Effects have a minus sign here. This is one part of the list.
# Target: human ether-à-go-go-related gene (hERG) potassium channel (human, UniProt Q12809)
# Experiment: primary screen, population patch clamp on CHO cells stably expressing hERG
# 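Also: peak tail current of the secondary pulse compared with the same well before compound.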
# Chain of human ether-à-go-go-related gene (hERG) potassium channel (Q12809 whole entry, looked up): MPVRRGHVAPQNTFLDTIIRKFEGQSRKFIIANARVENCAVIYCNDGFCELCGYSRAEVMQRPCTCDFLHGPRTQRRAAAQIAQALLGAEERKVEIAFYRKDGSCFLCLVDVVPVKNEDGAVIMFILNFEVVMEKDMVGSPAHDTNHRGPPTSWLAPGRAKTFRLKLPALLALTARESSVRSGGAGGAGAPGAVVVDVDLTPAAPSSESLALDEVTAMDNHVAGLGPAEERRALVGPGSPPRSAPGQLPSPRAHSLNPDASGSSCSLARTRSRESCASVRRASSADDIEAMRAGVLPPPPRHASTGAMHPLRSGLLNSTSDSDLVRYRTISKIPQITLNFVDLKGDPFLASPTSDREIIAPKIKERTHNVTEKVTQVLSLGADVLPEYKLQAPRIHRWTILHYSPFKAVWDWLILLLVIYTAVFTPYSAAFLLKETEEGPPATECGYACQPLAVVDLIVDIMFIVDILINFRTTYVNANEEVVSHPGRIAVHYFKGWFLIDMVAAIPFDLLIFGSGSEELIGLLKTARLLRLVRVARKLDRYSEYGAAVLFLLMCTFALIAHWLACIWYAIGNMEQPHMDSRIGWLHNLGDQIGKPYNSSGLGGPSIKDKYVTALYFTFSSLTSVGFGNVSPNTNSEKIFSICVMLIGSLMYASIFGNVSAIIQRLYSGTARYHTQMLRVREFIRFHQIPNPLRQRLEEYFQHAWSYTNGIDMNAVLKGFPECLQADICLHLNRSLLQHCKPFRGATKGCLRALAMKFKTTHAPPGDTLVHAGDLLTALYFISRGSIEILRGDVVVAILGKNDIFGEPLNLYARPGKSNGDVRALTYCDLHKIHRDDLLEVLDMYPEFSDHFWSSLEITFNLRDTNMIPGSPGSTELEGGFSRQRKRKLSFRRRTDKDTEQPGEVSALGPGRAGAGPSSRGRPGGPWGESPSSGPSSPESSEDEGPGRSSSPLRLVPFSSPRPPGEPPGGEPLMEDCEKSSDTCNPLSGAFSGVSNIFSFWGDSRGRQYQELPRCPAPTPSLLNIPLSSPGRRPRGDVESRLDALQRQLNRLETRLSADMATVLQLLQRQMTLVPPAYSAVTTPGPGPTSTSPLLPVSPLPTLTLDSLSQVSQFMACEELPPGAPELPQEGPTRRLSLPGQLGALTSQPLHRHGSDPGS
row,SMILES,"hERG current change (%, negative = inhibition) at 10uM [%]"
1,C[C@@H]1CN(Cc2nc(Cc3ccccc3F)no2)C[C@H](C)O1,13.2
2,Cc1cccc(NC2SC(=O)N(c3ccccc3)C2=O)c1 (stereo not shown),-1.23
3,FC(F)(F)c1ccc(N2CCN(c3ncnc4c3nnn4Cc3ccccc3)CC2)nc1,-2.11
4,O=C(Nc1cccc(Cl)c1)c1nc[nH]c1C(=O)NCc1ccccc1,3.12
5,CC(C)Oc1cccc(C(=O)Nc2ccc(Br)cc2F)c1,7.79
6,O=C(O)CCc1ccc(NCc2cccc(Oc3ccccc3)c2)cc1,5.22
7,COc1ccc2c(c1)[nH]c1c(=O)n(/N=C/c3ccc(OC)c(COc4ccccn4)c3)cnc12,-9.63
8,CCN(CC(=O)Nc1cccc(S(=O)(=O)N2CCCCC2)c1)Cc1ccccc1,-25.4
9,CCn1cc(C(=O)N2CCN(c3ccc(F)cc3)CC2)c2cc(OC)c(OC)cc2c1=O,-69.5
10,Cc1ccc(C)c(NC(=O)COC(=O)CCCN=C2NS(=O)(=O)c3ccccc32)c1,4.55
11,CCN(CC)c1ccc(C2=NNC(=O)CC2C)cc1[N+](=O)[O-] (stereo not shown),1.32
12,Cc1ccc(S(=O)(=O)NCCN=Cc2ccc(N(C)C)cc2)cc1,23.4
13,CC(C)OC(=O)c1cc2ccccc2[nH]1,-8.17
14,O=C(Nc1nncs1)C1CC(=O)N(CCc2ccc(F)cc2)C1 (stereo not shown),27.1
15,COC(=O)C1=C(c2ccc(Cl)c(C(F)(F)F)c2)C[C@@H]2CC[C@H]1N2C(=O)N1CCC(C)CC1,10.1
16,Cc1ccc(N(CC2CO2)S(=O)(=O)c2ccccc2[N+](=O)[O-])cc1 (stereo not shown),1.23
17,Cc1ccccc1CN1C2=NCCCN2c2ccccc21.Cl,-68
18,Cc1ccc(C(C)C)c(OCCn2c(=O)oc3ccccc32)c1,15.2
19,CC(C)CCC(C)NC(=O)C1CCN(S(=O)(=O)/C=C/c2ccccc2)CC1 (stereo not shown),20.7
20,Cc1cccc(C)c1NC(=O)CSc1nc2ccccc2c(=O)[nH]1,3.46
21,COc1ccccc1Oc1ccccc1C(=O)O,0.941
22,O=C(NCC1CCCO1)c1cn(-c2ccccc2)nc1-c1ccccc1 (stereo not shown),0.326

row,SMILES,"hERG current change (%, negative = inhibition) at 10uM [%]"
1,Cc1ccc(C)c(S(=O)(=O)NCC(=O)Nc2ccc3c(c2)OCO3)c1,3.55
2,CCC(C)Nc1c([N+](=O)[O-])cc(C)cc1[N+](=O)[O-] (stereo not shown),11
3,CCN1C(=O)C(CC(=O)Nc2ccc(OC)cc2)N(CCN2CCOCC2)C1=S (stereo not shown),-4.13
4,COc1ccc(NC(=O)CN(C)CC(=O)NC2CCCCC2C)cc1 (stereo not shown),9.72
5,CC1(C)Cc2c(sc3c2c(N)nc(=S)n3Cc2ccccc2)CO1,-40.5
6,O=C(c1ccccc1)c1ccc(CN2C(=O)c3ccccc3C2=O)o1,-28
7,CCOc1ccccc1NC(=O)CNS(=O)(=O)c1ccc2nc(C)sc2c1,19
8,O=C(/C=C/c1ccc(Cl)cc1)NCc1cccs1,-1.13
9,CCOC(=O)N1CCC(NC(=O)CCc2c(C)nc3c(c(C)nn3C(C)(C)C)c2C)CC1,-6.5
10,COc1ccc(CNC(=O)COC(=O)CCC(=O)c2cccs2)cc1,-16.3
11,CCn1c(=S)ccc2ccc(OC)cc21,-0.453
12,COCc1nnc(NC(=O)c2ccc(S(=O)(=O)N3CCCCCC3)cc2)o1,-21.2
13,Fc1ccc2c(c1)C(c1cccnc1)=NNC(c1cccs1)=N2,-23.1
14,CCOc1ccc(NC(=S)NCc2cccnc2)cc1,-7.03
15,O=C(CC1C(=O)NCCN1Cc1cccc(C(F)(F)F)c1)NCCCOc1cccnc1 (stereo not shown),-3.59
16,CC1CCCC(NC(=O)c2ccc3c(c2)N(Cc2ccccc2)C(=O)CS3=O)C1C (stereo not shown),10.6
17,O=C(Cc1ccc(Cl)cc1)NCCN1CCN(C(=O)Cc2ccc(Cl)cc2)CC1,-53.4
18,CC(C)OCCCNC(=O)c1cc(S(=O)(=O)N2CCc3ccccc32)cn1C,-13.2
19,CCCCC[n+]1ccn(-c2nc3ccccc3nc2[N-]S(=O)(=O)c2ccc(C)cc2)c1,-6.35
20,Nn1cc(-c2ccccc2)nc1SCC(=O)NCC(F)(F)F,14.7
21,COc1ccc(-c2csc3nc(-c4ccccc4)oc(=O)c23)cc1OC,14.3
22,O=c1cc(CSc2ccc(Cl)cc2)nc(-c2ccncc2)[nH]1,1.72

row,SMILES,"hERG current change (%, negative = inhibition) at 10uM [%]"
1,O=C(c1cc2n(n1)C(C(F)(F)F)CC(c1ccco1)N2)N1CCc2ccccc2C1 (stereo not shown),-16.6
2,CN(C(=O)COC(=O)c1cccc(S(=O)(=O)N2CCOCC2)c1)C1CCS(=O)(=O)C1 (stereo not shown),13.7
3,Cc1ccc(-c2nn(-c3ccccc3)cc2/C=C/C(=O)O)o1,6.87
4,O=C(NCCCN1CCOCC1)c1cnn2c(-c3ccccc3)cc(-c3ccccc3)nc12,-41.3
5,CCOC(=O)/C=c1\s/c(=C\c2c(OCC)ccc3ccccc23)c(=O)n1CC(=O)NCC1CCCO1 (stereo not shown),4.96
6,NC(=O)CN1C(=O)NC(c2ccccc2)(c2ccccc2)C1=O,18.2
7,O=C(N/N=C/C=C/c1ccccc1)C(O)c1ccccc1 (stereo not shown),2.87
8,COc1ccc(CCN2CC(C(=O)Nc3ccccc3F)CC2=O)cc1OC (stereo not shown),-12.2
9,Clc1ccc(-n2ncc3c(N4CCCC4)ncnc32)cc1,-2.62
10,O=C(c1ccc2[nH]c3c(c2c1)CCCC3)N1CCN(c2ccc(F)cc2)CC1,-12.4
11,O=C(c1ccc(N2C(=O)CCC2=O)cc1)N1CCN(c2ccccc2)CC1,8.26
12,COC(=O)C(CC(C)C)NC(=O)/C=C/c1ccccc1Cl (stereo not shown),10.1
13,COc1ccc(/C=N/Nc2cc(OC)ncn2)cc1,15.6
14,S=C(NCCc1ccccc1)NCCc1cnc[nH]1,-4.01
15,Nc1nnc(SCc2ccc3c(c2)OCO3)s1,0.437
16,COc1ccccc1CC(Cc1nc2ccccc2[nH]1)c1nc2ccccc2[nH]1 (stereo not shown),-41.1
17,CC(C)(C)NC(=O)CSc1nc(-c2ccccc2)c(-c2ccccc2)[nH]1,-13.1
18,O=C(CSc1nc2ccccc2c(=O)n1-c1ccc(F)cc1)NC1CC1,-9.4
19,CC(C)(C)N(Cc1cc2ccccc2[nH]c1=O)C(=O)c1cccc([N+](=O)[O-])c1,6.69
20,CSc1ccccc1NC(=O)CN(C)C(=O)c1c(C)nn(Cc2ccccc2)c1C,-24.1
21,CC(=O)N1CCN(CC(O)COc2ccc(OCc3ccccc3)cc2)CC1 (stereo not shown),-17.7
22,Cc1nc(C)n(C(Oc2ccc(Cl)cc2Cl)C(=O)C(C)(C)C)n1 (stereo not shown),-1.62

row,SMILES,"hERG current change (%, negative = inhibition) at 10uM [%]"
1,COc1ccc(OC)c(NC(=O)C(=O)NNC(=O)COc2ccc(Br)cc2C)c1,18.4
2,Cc1cc(=O)n(CCC(=O)O)c2ccccc12,10.7
3,COC(=O)/C(=C\C=C\c1ccccc1)NC(=O)c1ccccc1,8.85
4,NS(=O)(=O)c1ccc(NC(=O)COC(=O)CCc2ccccc2)cc1,21.3
5,Cc1cc(C(=O)NC2CCCN(Cc3ccccc3F)C2)n[nH]1 (stereo not shown),19.6
6,CCOC(=O)c1[nH]c(CSc2nnc(-c3ccc(OC)cc3)o2)c(C(=O)OCC)c1C,5.46
7,C/C(=N\NS(=O)(=O)c1ccc(C(C)(C)C)cc1)c1ccccc1,2.69
8,Cn1ccnc1SCC(=O)Nc1ccc2c(c1)COC2=O,7.8
9,Cc1ccc2c(c1)C1CN(C)CCC1N2CC(=O)N(C)c1ccccc1 (stereo not shown),6.34
10,CCOC(=O)c1ccccc1NC(=O)CSc1nnnn1C1CCCCC1,-41
11,CCn1ncc(C2=NOC(C(=O)Nc3c(C)nn(Cc4ccc(F)cc4)c3C)C2)c1C (stereo not shown),10.3
12,O=C(Nc1ccccc1F)c1ccccc1C(=O)Nc1ccccc1F,6.6
13,COc1ccc(NC(=O)N(C2CCCCC2)C(C)c2cccnc2)c(OC)c1 (stereo not shown),-19.6
14,CC1(C(=O)O)CCC(C(=O)NNC(=O)c2ccccc2O)C1(C)C (stereo not shown),12
15,CCN(Cc1ccccc1)C(=O)CCCOc1ccccc1,-2.67
16,COc1cccc(C(=O)NCCS(=O)(=O)NCCc2ccccc2)c1,-23.6
17,N#CCSc1n[nH]c2nc3c(c(=O)n12)C1(CCCC1)Cc1ccccc1-3,7.88
18,O=c1[nH]c2ccccc2nc1-c1cccs1,1.66
19,O=C(O)COC(=O)C1C(c2ccccc2)C(C(=O)O)C1c1ccccc1 (stereo not shown),-1.16
20,NC(=O)N=Nc1c(O)[nH]c2c(Br)cc(Br)cc12,8.72
21,O=C(CSc1nc2ccc(NC(=O)c3ccccc3C(=O)O)cc2s1)Nc1ccc(F)c([N+](=O)[O-])c1,13.5
22,COc1ccccc1NC(=O)COc1cc(C)nc(C(C)C)n1,7.66
